PMC4336329 (PLoS ONE, 2015)
Out of some 310,000 compounds screened, about 14,000 (4.5%) showed an effect of 50% or more. Effects have a minus sign here. The list shows a part of the results.

Target: human ether-à-go-go-related gene (hERG) potassium channel (human, UniProt Q12809)
Test: primary screen, population patch clamp on CHO cells stably expressing hERG
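Further: peak tail current of the secondary pulse compared with the same well before compound.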

Chain of human ether-à-go-go-related gene (hERG) potassium channel (Q12809 whole entry, looked up): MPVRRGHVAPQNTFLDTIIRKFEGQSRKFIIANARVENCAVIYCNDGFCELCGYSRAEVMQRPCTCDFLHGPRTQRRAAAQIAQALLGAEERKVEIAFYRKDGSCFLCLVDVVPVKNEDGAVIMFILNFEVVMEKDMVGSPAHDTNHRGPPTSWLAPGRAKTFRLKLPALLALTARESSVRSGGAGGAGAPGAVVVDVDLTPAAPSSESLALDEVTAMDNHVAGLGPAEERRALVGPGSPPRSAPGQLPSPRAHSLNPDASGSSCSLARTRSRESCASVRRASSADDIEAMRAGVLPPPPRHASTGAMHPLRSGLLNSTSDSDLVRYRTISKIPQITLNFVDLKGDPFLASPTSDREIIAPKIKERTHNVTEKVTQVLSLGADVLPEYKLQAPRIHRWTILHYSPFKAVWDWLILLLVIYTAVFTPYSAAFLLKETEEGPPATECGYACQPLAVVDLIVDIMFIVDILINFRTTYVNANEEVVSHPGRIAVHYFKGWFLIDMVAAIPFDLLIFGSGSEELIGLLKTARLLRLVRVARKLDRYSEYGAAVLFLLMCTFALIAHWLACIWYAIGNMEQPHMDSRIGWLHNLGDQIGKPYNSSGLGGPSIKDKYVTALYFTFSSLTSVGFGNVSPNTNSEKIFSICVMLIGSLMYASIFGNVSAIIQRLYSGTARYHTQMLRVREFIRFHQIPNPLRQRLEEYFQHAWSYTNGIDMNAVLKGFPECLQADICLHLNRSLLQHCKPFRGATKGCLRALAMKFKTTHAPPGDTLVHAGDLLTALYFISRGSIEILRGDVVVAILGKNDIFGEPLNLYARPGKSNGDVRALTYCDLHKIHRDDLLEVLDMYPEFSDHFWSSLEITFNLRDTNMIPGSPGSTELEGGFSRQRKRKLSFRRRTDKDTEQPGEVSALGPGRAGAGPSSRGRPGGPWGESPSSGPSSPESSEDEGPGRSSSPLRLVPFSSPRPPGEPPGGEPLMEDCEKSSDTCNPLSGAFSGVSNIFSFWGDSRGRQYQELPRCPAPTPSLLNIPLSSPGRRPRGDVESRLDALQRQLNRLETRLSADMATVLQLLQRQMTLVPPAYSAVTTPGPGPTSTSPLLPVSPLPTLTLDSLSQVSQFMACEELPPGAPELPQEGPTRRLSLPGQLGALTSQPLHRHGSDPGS

Point of comparison: `NS(=O)(=O)c1cccc(NC(=O)CNC(=O)CC23CC4CC(CC(C4)C2)C3)c1`, “hERG current change (%, negative = inhibition) at 10uM” value 7.32%. Against it:
- CC(C)(C)NC(=O)NC(=O)Cn1ccsc1=N.Cl — lower, 1.61%
- Cc1ccccc1C(=O)NC1CCN(CC(=O)Nc2nccs2)CC1 — lower, -14.4%
- CCOc1cc(-c2c(C)c(C)nc(N)c2C#N)ccc1O — lower, -0.923%
- Cc1cccc2c(SCC(=O)NCC3CCCO3)nc(-c3ccc(F)cc3)nc12 (centres unmarked) — lower, -4.76%
- Cc1ccc2nc(/C(C#N)=C\c3ccc(Oc4ccc(C(F)(F)F)cc4[N+](=O)[O-])cc3)[nH]c2c1 — higher, 20.8%
- COc1ccc(C2CC(c3c(-c4ccccc4)c4cc(Cl)ccc4[nH]c3=O)=NN2S(C)(=O)=O)cc1 (centres unmarked) — lower, 4.99%
- CCCC(=O)Nc1cc2c3c(c1)CC(=O)N3CCC2 — lower, -2.64%
- Cc1cc(C)cc(NC(N)=S)c1 — lower, 3.83%
- Cl.NCC12CC3CC(CC(O)(C3)C1)C2 — higher, 13.2%
- CC1(C)Cc2ccccc2C2=NNC(=O)C2=N1 — higher, 15.9%
- O=C(O)c1ccc2c(c1)C(=O)N(CCCCCCCN1C(=O)c3ccc(C(=O)O)cc3C1=O)C2=O — higher, 20.7%
- CCOc1ccc2nc(NC(=O)c3cnccn3)sc2c1 — lower, 2.76%
- Cc1cc(C)cc(NC(=S)/C(=C(\[O-])c2ccc(Cl)cc2Cl)[n+]2ccccc2)c1 — lower, 0.16%
- CC1CCC2C(=O)N(c3ccc(Cc4ccncc4)cc3)C(=O)C2C1 (centres unmarked) — higher, 10.4%
- CC(C)(C)c1cc(NS(=O)(=O)c2cccs2)no1 — higher, 15.6%
- Cc1ccc(OCC(=O)NC2CCSc3ccccc32)cc1 (centres unmarked) — lower, -11.4%
- S=c1nc[nH]c2c1sc1nc(N3CCOCC3)c3c(c12)CCCC3 — higher, 35.3%
- COc1ccc(C(=O)NCCCNC(=O)c2ccco2)cc1OC — lower, 6.63%
- Cc1nn(-c2ncc(C(F)(F)F)cc2Cl)c(=O)n1-c1ccccc1 — higher, 19.9%
- C=CCN1C(=O)c2ccc(C(=O)NCCOc3ccccc3F)cc2C1=O — lower, -28.7%
- C=CCNCCCCOc1ccccc1-c1ccccc1.O=C(O)C(=O)O — lower, -19.3%
- O=C(Oc1ccccc1C(=S)N1CCCCC1)c1cc([N+](=O)[O-])cc([N+](=O)[O-])c1 — lower, 2.81%
- COc1ccc(OC)c(NC(=O)c2sc3ncnc(N4CCN(c5ccccn5)CC4)c3c2C)c1 — lower, -4.37%
- O=CN1Cc2[nH]c3ccccc3c2N(c2ccc(Cl)cc2)C1=O — lower, -2.87%
- COc1ccccc1OCC(=O)/C=C1/N(C)c2ccccc2C1(C)C — lower, -27.3%
- Cn1c(C(=O)N(Cc2ccccc2)Cc2cccs2)cc2sccc21 — lower, -6.39%
- CC1=NNC(=O)C1CCC(=O)N/N=C(\C)c1ccccc1 (centres unmarked) — higher, 28.3%
- CCn1c(SCC(=O)NCC2CCCO2)nc2cc(S(=O)(=O)N3CCCCC3)ccc21 (centres unmarked) — lower, -21.2%
- COc1ccc(OC)c(-n2nnnc2SCC(=O)Nc2nc(C)c(C)s2)c1 — lower, -1.73%
- O=C(CSc1ccc2nnc(CCNC(=O)c3ccccc3)n2n1)NCCc1ccccc1 — lower, 2.97%
- Cl.NCCCC[C@@H](C(=O)N1CCNCC1)n1cc([C@@H](N)CO)nn1 — lower, -0.997%
- C/C(=N\NC(=O)CC1N=C(Cc2ccccc2)NNC1=O)c1ccc(C)cc1 (centres unmarked) — lower, -7.11%
- Cc1nnc(SCc2cccc3ccccc23)s1 — lower, -22.8%
- Cc1ccccc1CSc1nc(C(C)(C)C)cc(=O)[nH]1 — higher, 11.8%
- Cc1ccc2c(c1)CC1(CN2C)C(=O)NC(=O)N(c2ccc(C)c(C)c2)C1=O (centres unmarked) — lower, -8.83%
- CCC1CCCCN1CCCNS(=O)(=O)c1ccc2c(c1)oc(=O)n2C (centres unmarked) — lower, 3.32%
- CC(NCC(O)COc1ccc(Br)cc1)c1ccccc1.Cl (centres unmarked) — lower, 0.452%
- COc1ccc2c(CC(=O)OCC(=O)Nc3sc4c(c3C#N)CCC(C)C4)coc2c1 (centres unmarked) — higher, 11.4%
- O=C(O)[C@H](Cc1ccccc1)NC(=O)N1CCN(c2cccc(C(F)(F)F)c2)CC1 — higher, 10.2%
- COc1ccc(OC)c(NC(=O)C(CC(=O)O)NCc2ccco2)c1 (centres unmarked) — higher, 25%
- COc1ccc(NC(=O)c2cc([N+](=O)[O-])ccc2N2CCCC2)cc1 — lower, -1.73%
- Cc1oc2cc(OC(=O)c3ccco3)ccc2c(=O)c1-c1nc2ccccc2n1C — higher, 25.1%
- CC(C)OC(=O)Cn1nnc(-c2ccccc2)n1 — lower, 0.0206%
